The campaign covered roughly 420,000 compounds. About 50,000 (12%) were called active. Inconclusive results, whose numbers are uncertain, are shown with a selection of clear calls. Calls come from the whole dose curve; as a rule, active = well fitted inhibition curve with a large enough effect; inconclusive = small, poorly fitted or top-dose-only effect; inactive = flat fitted curve, though single readings scatter. No potency is given beside an inconclusive call; the fits are too rough.
Experiment: qHTS for Inhibitors of human tyrosyl-DNA phosphodiesterase 1 (TDP1): qHTS in cells in presence of CPT; note: nearly all actives have a fitted effect of over 55% in size
Conditions: chicken DT40 Tdp1-/-;hTDP1 cells + 20 nM CPT, ATP luminescence, 48 h; activity change, negative = growth inhibition: at 46.2 µM (top of the series) unless noted
How it was run: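 Chicken DT40 Tdp1-/- cells stably complemented with human TDP1 were seeded at 400 cells/well in medium containing 20 nM camptothecin, exposed to pin-transferred compounds, and grown at 37 °C for at least 48 hr. Viability was read as ATP luminescence.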
% is set by controls: 0 for no effect and ±100 for the full control effect; potency is the fitted concentration of half-maximal effect; tags give direction and shape of the fitted curve.

Row | Compound | Potency | activity change, negative = growth inhibition
1 | Cc1onc(-c2ccccc2Cl)c1C(=O)Nc1ccccc1N1CCOCC1 | inconclusive [inhibitor, single point] | –
2 | Cc1csc(SC(C)C(=O)Nc2ccccc2C)n1 (stereo not drawn) | inactive | –
3 | CC(C)CCNC(=O)C1CCCN(S(=O)(=O)c2ccc(-n3cnnn3)cc2)C1 (stereo not drawn) | – | inconclusive: -4.65% [inhibitor]
4 | COc1cccc(NC(=O)c2cc([N+](=O)[O-])ccc2NCc2cccnc2)c1 | inconclusive [inhibitor, single point] | –
5 | CC(=O)Nc1ccc(C=NN=C2c3ccccc3-c3ccccc32)cc1 | active: 25.9 µM | –
6 | CC(C)(S)C(=O)N[C@@H](CS)C(=O)O | inactive | –
7 | CN(Cc1cc(Cl)cc(Cl)c1O)Cc1c(O)ccc2ccccc12 | inconclusive [inhibitor, single point] | –
8 | CC(=O)NC(CC(=O)NCCCn1ccc2ccccc21)c1ccccc1 (stereo not drawn) | inactive | –
9 | CCOc1cc(NC(=S)NCC2CCCO2)c(OCC)cc1NC(=O)CC (stereo not drawn) | inactive | –
10 | CC(=NO)c1ccc2c(c1)C(=NO)c1ccccc1-2 | active: 16.4 µM | –
11 | CCc1ccc(S(=O)(=O)c2nnn3c2nc(N2CCOCC2)c2ccccc23)cc1 | inconclusive [inhibitor, single point] | –
12 | O=c1[nH]c(SCc2ccccc2Cl)nc2c1CCC2 | inconclusive [inhibitor, single point] | –
13 | COc1ccc(CN(C)S(=O)(=O)c2nnc(NC(=O)c3ccccc3)s2)cc1OC | inconclusive [inhibitor, single point] | –
14 | COc1ccc(Cl)c(-c2cc(C(=O)Nc3ccc(C)c(NS(C)(=O)=O)c3)[nH]n2)c1 | inconclusive [inhibitor, single point] | –
15 | O=C(NCCCN1CCN(CCCNC(=O)c2ccccc2F)CC1)c1ccccc1F | inconclusive [inhibitor, full curve, poor fit] | –
16 | Cc1cc(C)cc(NC(=S)N2CCC(NC(=O)C3CCCCC3)CC2)c1 | inactive | –
17 | O=C(CNC(=O)c1cccs1)N/N=C/c1c[nH]c2ccccc12 | inconclusive [inhibitor, single point] | –
18 | COc1ccc(/C=C/CN2CCCC(C(=O)c3ccc(OC)c(F)c3)C2)cc1 (stereo not drawn) | inconclusive [inhibitor, single point] | –
19 | O=C(Nc1cc2c3c(c1)C1CCCC1CN3CC1CCCC21)c1ccccc1 (stereo not drawn) | inconclusive [inhibitor, single point] | –
20 | COC(=O)c1ccc2c(=O)n(-c3ccccc3)c(=S)[nH]c2c1 | inactive | –
21 | CCN(CC)S(=O)(=O)c1cc(C(=O)Nc2cccnc2)ccc1Cl | inactive | –
22 | O=C1CCCC2=C1CC(C(=O)OCc1ccccc1)C(=O)N2Cc1ccccc1 (stereo not drawn) | inactive | –
23 | CN(C)CCCNS(=O)(=O)c1ccc(Oc2ncc(C(F)(F)F)cc2Cl)cc1 | inconclusive [inhibitor, single point] | –

Row | Compound | Potency | activity change, negative = growth inhibition
24 | CC(=O)OCC1OC(OC2C[C@]3(C)C(CC(O)C4C([C@](C)(CCC=C(C)C)OC5OC(CO)C(O)C(O)C5O)CC[C@]43C)[C@@]3(C)CCC(O)C(C)(C)C23)C(O[C@@H]2OC(C)C(O)C(O)C2O)C(O)C1O (stereo partly drawn) | inactive | –
25 | CC(C)N(C(=O)CC1ON(C)C(=O)N1c1ccc(Cl)cc1)C(C)C (stereo not drawn) | inconclusive [inhibitor, partial curve, poor fit] | –
26 | O=C(N/N=C/c1ccc(Br)s1)c1cccc([N+](=O)[O-])c1 | inconclusive [inhibitor, full curve] | –
27 | CCCCCCCCN1C(=O)[C@H](CC(=O)N2CCCC2)C[C@@]2(C(=O)OC)CCCCC=C12 | active: 16.4 µM | –
28 | CCSc1ccc(-c2nn(-c3ccccc3)cc2/C=C(/C#N)C(=O)NC)cc1 | inconclusive [inhibitor, partial curve, poor fit] | –
29 | CCCCOCCCNC(=O)C[C@@H]1C[C@@]2(C(=O)OC)CCCCC=C2N(Cc2ccco2)C1=O | inconclusive [inhibitor, single point] | –
30 | CC1CCc2nc(NC(=O)COc3ccc(C(C)(C)C)cc3)sc2C1 (stereo not drawn) | inconclusive [inhibitor, single point] | –
31 | COc1cc(OC)cc(C(=O)N2c3ccc(F)cc3CCC2C)c1 (stereo not drawn) | active: 10.3 µM | –
32 | N=c1oc2ccccc2cc1-c1nc(-c2ccccc2)cs1 | inconclusive [inhibitor, single point] | –
33 | CCCCN(CCCN)c1ccc(Br)cn1 | inconclusive [inhibitor, single point] | –
34 | Nc1c(N(Cc2ccco2)C(=O)c2ccccc2F)c(=O)[nH]c(=O)n1Cc1ccccc1 | inactive | –
35 | COc1cc(OC)c(C2=NOC(C(=O)NCCc3ccccc3)C2)cc1Cl (stereo not drawn) | inactive | –
36 | Cc1ccccc1OCC(=O)NC(=S)Nc1ccc(N2CCOCC2)c(Cl)c1 | inactive | –
37 | CCn1c(/C=C/c2c(C)n(CC)c3ccccc23)nc2ccccc2c1=O | inconclusive [inhibitor, full curve] | –
38 | C#CCOC(=O)Nc1cccn(Cc2c(Cl)cccc2Cl)c1=O | active: 20.6 µM | –
39 | CCOC(=O)c1[nH]c2ccc(OCC)cc2c1NC(=O)CN1CCN(c2ccccn2)CC1 | inconclusive [inhibitor, single point] | –
40 | Cc1cccc(CCn2c(=O)c3ccccc3n(Cc3cccc(F)c3)c2=O)c1 | active: 18.4 µM | –
41 | COc1ccc(C2NC(Cc3ccccc3)(C(=O)O)C3C(=O)N(c4ccccc4OC)C(=O)C23)cc1 (stereo not drawn) | inconclusive [inhibitor, single point] | –
42 | COc1ccc2c(c1)oc(=O)c1c3ccccc3[nH]c21 | inconclusive [inhibitor, partial curve] | –
43 | COc1ccccc1-c1nc(SCC(=O)N(C)c2ccccc2)c2c(=O)n(C)c(=O)n(C)c2n1 | inconclusive [inhibitor, partial curve, poor fit] | –
44 | COc1cc2c(cc1OC)-c1n[nH]c(=S)n1C(C)(C)C2 | inactive | –
45 | C#CCOCCOCCOCCNc1nc(N2CCN(C(=O)Cn3cc(CCCCN)nn3)CC2)nc(N2CCN(C(=O)[C@H]([C@@H](C)CC)n3cc(CCCCN)nn3)CC2)n1 | – | inconclusive: -36.3% [inhibitor]
46 | CCOC(=O)C1(CCOC)CCN(C(=O)Cc2ccc3ccccc3c2)CC1 | inconclusive [inhibitor, single point] | –

Row | Compound | Potency | activity change, negative = growth inhibition
47 | CCCC(=O)N1CC(=O)Nc2ccc(Cl)cc2C1c1ccc(F)cc1 (stereo not drawn) | inconclusive [inhibitor, single point] | –
48 | CC(=O)c1cccc(NC(=O)CCS(=O)(=O)c2cc(Br)cc3c2N(C(=O)C2CC2)CC3)c1 | inconclusive [inhibitor, single point] | –
49 | CCOc1nc(-c2ccc(OC)cc2)ccc1-c1noc(C)n1 | inconclusive [inhibitor, single point] | –
50 | COc1ccc(Cl)cc1N1C(=O)C2CCCN2C1c1ccc(F)cc1 (stereo not drawn) | inactive | –
51 | CCOc1ccc(S(=O)(=O)Nc2ccc3oc(C)c(C(=O)OCCOC)c3c2)cc1 | active: 1.84 µM | –
52 | CC(OC(=O)[C@@H](NS(=O)(=O)c1ccccc1)C(C)C)C(=O)c1c(N)n(C)c(=O)n(C)c1=O (stereo partly drawn) | inactive | –
53 | Oc1ccc(N=Nc2nc(-c3ccccc3)c(-c3ccccc3)[nH]2)cc1 | inconclusive [inhibitor, single point] | –
54 | O=C(Nc1ccccc1)Nc1nnc(-c2cccs2)s1 | inconclusive [inhibitor, single point] | –
55 | Cc1ccc(/C=C2/Sc3ccccc3N(CC(=O)NCCCOC(C)C)C2=O)cc1 | inconclusive [inhibitor, single point] | –
56 | C#CCNC(=O)C1=C[C@H](c2ccc3c(c2)OCO3)C[C@H](OCc2ccc(CO)cc2)O1 | – | inconclusive: -36% [inhibitor]
57 | CCCCn1nnnc1C(c1ccccc1)N1CCN(c2ccccc2)CC1 (stereo not drawn) | inconclusive [inhibitor, single point] | –
58 | Cc1nn(C)c(C)c1CN(C)C(=O)c1cc2nc(-c3ccco3)cc(C(F)(F)F)n2n1 | – | inconclusive: -30% [inhibitor]
59 | Cc1ccnc(NC(=O)/C=C/c2cccs2)c1 | inconclusive [inhibitor, partial curve] | –
60 | O=C(c1ccc(Br)s1)N1CCN(C/C=C/c2ccccc2)CC1 | inconclusive [inhibitor, partial curve] | –
61 | CCS(=O)(=O)c1ncc(N(Cc2ccco2)Cc2sccc2C)c(C(=O)Nc2cc(C)ccc2C)n1 | inconclusive [inhibitor, single point] | –
62 | CN(C)C1=NC[C@H](Cc2ccccc2)N1CCCCc1ccccc1 | inconclusive [inhibitor, single point] | –
63 | O=C(CN(Cc1ccccc1)S(=O)(=O)c1ccccc1)N/N=C/c1ccc([N+](=O)[O-])cc1 | inactive | –
64 | COc1ccc(C2(C)NC(=O)N(CC(=O)NCc3ccccc3F)C2=O)cc1 (stereo not drawn) | inactive | –
65 | COC(=O)CSc1nnc([C@H](Cc2ccccc2)NC(=O)OC(C)(C)C)o1 | inactive | –
66 | CCCn1c(=O)c2sccc2n2c(CCCC(=O)N3CCN(c4ccccc4)CC3)nnc12 | inconclusive [inhibitor, single point] | –
67 | NCCCNc1nc(N)c([N+](=O)[O-])c(NC2CCCCC2)n1 | active: 4.11 µM | –
68 | O=C(Nc1ccccc1Oc1ccccc1)c1cc([N+](=O)[O-])ccc1Cl | active: 16.4 µM | –

Source: PubChem BioAssay AID686979 (National Center for Advancing Translational Sciences (NCATS), 2013)
